Screen size: about 310,000 compounds; about 2,200 (0.71%) showed an effect of 50% or more. Effects have a minus sign here. Some of the results follow.
What follows are compounds tested against human ether-à-go-go-related gene (hERG) potassium channel (human, UniProt Q12809) (assay: primary screen, population patch clamp on CHO cells stably expressing hERG).
Sequence of human ether-à-go-go-related gene (hERG) potassium channel (Q12809 whole entry, looked up): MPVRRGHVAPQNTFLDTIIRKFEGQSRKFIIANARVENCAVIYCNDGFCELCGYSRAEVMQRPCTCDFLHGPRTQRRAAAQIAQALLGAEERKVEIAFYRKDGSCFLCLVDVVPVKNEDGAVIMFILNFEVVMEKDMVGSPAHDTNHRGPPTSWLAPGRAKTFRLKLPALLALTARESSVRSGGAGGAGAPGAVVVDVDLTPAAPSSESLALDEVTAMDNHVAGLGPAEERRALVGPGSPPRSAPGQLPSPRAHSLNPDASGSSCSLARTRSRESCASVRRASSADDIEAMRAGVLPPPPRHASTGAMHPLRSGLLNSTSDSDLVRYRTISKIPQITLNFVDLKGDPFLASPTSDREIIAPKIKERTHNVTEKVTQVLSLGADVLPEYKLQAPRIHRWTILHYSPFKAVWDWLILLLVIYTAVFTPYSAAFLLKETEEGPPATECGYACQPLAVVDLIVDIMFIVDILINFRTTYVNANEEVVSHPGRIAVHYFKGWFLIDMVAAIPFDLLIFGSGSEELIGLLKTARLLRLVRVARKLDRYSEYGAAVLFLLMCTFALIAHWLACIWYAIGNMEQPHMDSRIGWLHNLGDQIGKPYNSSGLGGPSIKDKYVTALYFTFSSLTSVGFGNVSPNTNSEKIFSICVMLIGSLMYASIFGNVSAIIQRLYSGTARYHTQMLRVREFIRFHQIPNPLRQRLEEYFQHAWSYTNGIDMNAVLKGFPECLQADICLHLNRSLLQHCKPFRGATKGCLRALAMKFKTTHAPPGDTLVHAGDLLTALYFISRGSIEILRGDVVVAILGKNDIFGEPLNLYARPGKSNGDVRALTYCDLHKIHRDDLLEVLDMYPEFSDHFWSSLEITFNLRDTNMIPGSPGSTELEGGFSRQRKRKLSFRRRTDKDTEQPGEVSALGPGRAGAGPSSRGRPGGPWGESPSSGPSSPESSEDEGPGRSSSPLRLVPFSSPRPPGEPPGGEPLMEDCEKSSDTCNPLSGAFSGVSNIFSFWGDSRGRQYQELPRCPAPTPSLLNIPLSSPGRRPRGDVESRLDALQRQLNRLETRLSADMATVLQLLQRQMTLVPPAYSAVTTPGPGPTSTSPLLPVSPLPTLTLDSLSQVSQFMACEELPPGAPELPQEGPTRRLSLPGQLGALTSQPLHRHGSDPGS

Row | Compound | hERG current change (%, negative = inhibition) at 1uM
1 | CCN1C(=O)CC(N2CCC(C(=O)OC)CC2)C1=O (stereo not drawn) | 13.7%
2 | CC(C)c1ccc(/C=C/C(=O)N2CCCCCC2)cc1 | -0.9%
3 | CSc1nc2sc3c(c2c2nnnn12)CCCC3 | 12.7%
4 | O=C(NCc1ccc2c(c1)OCO2)C1CCCCC1 | 4.95%
5 | COc1cc(/C=C2\S/C(=N/S(=O)(=O)c3ccccc3)NC2=O)c([N+](=O)[O-])cc1OC | 9%
6 | Cc1cc2ccccc2nc1SCC(=O)NC1CCCCC1 | 10.2%
7 | CCN(CC(=O)Nc1ccc([N+](=O)[O-])cc1OC)c1ccccc1 | -2.55%
8 | O=C(Nc1cccc(F)c1)c1ccccc1-c1ccccc1 | -5.75%
9 | O=c1ccnc(NCCc2ccccc2)[nH]1 | 19.5%
10 | CCOC(=O)/C(=N/Nc1ccccc1)N1CCCc2ccccc21 | 5.43%
11 | O=C(Cc1ccc(Cl)cc1)Nc1ccc(-c2cc3ccccc3oc2=O)c(Cl)c1 | -0.941%
12 | COCCOC(=O)C1=C(C)NC2=C(C(=O)CCC2)C1c1ccc2c(c1)OCO2 (stereo not drawn) | 3.71%
13 | O=C(NCc1ccccc1)C1Cc2ccccc2CN1C(=O)c1ccco1 (stereo not drawn) | 7.78%
14 | Cc1ccccc1NC(=O)c1cc(S(=O)(=O)N2CCOCC2)ccc1F | 9.74%
15 | CCN(CC)S(=O)(=O)c1ccc(Cl)c(C(=O)NC2CCN(Cc3ccccc3)CC2)c1.Cl | 7.64%
16 | CO/N=C/c1ccc(N2CCCC2)c([N+](=O)[O-])c1 | 5.95%
17 | CCOc1ccc(C(=O)Nc2ccc(N3CCN(S(C)(=O)=O)CC3)cc2)cc1[N+](=O)[O-] | 9.17%
18 | COc1cc(/C=N/NC(=O)c2ccncc2)ccc1O.O | 16.7%
19 | CC1(C)CC(=O)C=C(c2cccc(Br)c2)C1 | 13.5%
20 | Cc1ccc(-n2cnnn2)c2cccnc12 | 11.9%
21 | CC(C)OC(=O)c1c(N)n(CCCN2CCOCC2)c2nc3ccccc3nc12 | 2.68%
22 | COc1ccc(NC(=O)CSc2ncc(-c3ccc(F)cc3)n2Cc2ccco2)cc1 | 16.8%
23 | CC(=O)NC(CC(=O)NCCOc1ccccc1F)c1ccccc1 (stereo not drawn) | 13.8%

Row | Compound | hERG current change (%, negative = inhibition) at 1uM
24 | CC(C)Oc1ccc(C(=O)O)cc1 | 14.1%
25 | COC(=O)c1c(N)sc2c1CC(C)(C)OC2 | 13.8%
26 | COc1ccc(C(=O)NC(C)c2cc(OC)c(OC)cc2Br)cc1 (stereo not drawn) | -10.8%
27 | O=C(O)CCN1C(=O)NC2(CCCC2)C1=O | 3.71%
28 | CN(C)S(=O)(=O)c1cccc(NC(=O)CN(CCO)CC(=O)Nc2cccc(S(=O)(=O)N(C)C)c2)c1 | 13.6%
29 | COc1ccc(S(=O)(=O)NCC(c2cccnc2)N2CCN(c3ccccc3)CC2)cc1C (stereo not drawn) | -1.72%
30 | CCN(c1ccccc1)S(=O)(=O)c1nnc(NC(=O)c2ccco2)s1 | 8.17%
31 | Cn1c(SCc2ccc([N+](=O)[O-])cc2)nnc1-c1cccnc1 | 13.2%
32 | CC(=O)c1ncnn1CC(=O)c1ccc(Cl)cc1Cl | 8.21%
33 | O=C(CSc1nc2cc(Cl)ccc2s1)NC(=O)NCc1ccco1 | 0.537%
34 | CC(=O)c1c(N2CCCCC2)nc(=S)n(Cc2ccccc2)c1C | 4.19%
35 | Cc1c(C(=O)NCc2ccccn2)sc2nc(-c3ccc(F)cc3)cn12 | -3.62%
36 | COc1ccc(-c2cc(=O)oc3cc(OC(=O)C4CCCCC4)c(Cl)cc23)cc1 | 10.2%
37 | Cc1cccc(C(=O)NC(=S)Nc2ccccc2C(F)(F)F)c1 | -9.39%
38 | COCCn1c(SCC(=O)Nc2ccc(NC(C)=O)cc2)nc2c([nH]c3ccccc32)c1=O | 18.7%
39 | CC1CCN(CCNC(=O)c2ccc3c(=O)n(Cc4ccc(Cl)cc4)c(=S)[nH]c3c2)CC1 | 11.1%
40 | Cc1cc(C)n(CC(=O)NCc2ccccc2)c(=O)c1C#N | 14.5%
41 | COc1ccc(CNC(=O)CN(Cc2ccc(Cl)cc2)S(=O)(=O)c2ccccc2)cc1 | -3.3%
42 | Cc1ccc2c(c1)[C@@H]1CN(C)CC[C@@H]1N2C(=O)Nc1cccc(C(F)(F)F)c1 | -3.98%
43 | CC(C)(C)C(=O)Nc1ccccc1-c1nc2ccccc2[nH]c1=O | 14.3%
44 | CCOc1ccc(OCCC(=O)OCC(=O)NC(C)c2ccccc2)cc1 (stereo not drawn) | 13.9%
45 | CS(=O)(=O)c1sc(C(=O)NC(=O)Nc2cccc(C(F)(F)F)c2)c2c1C=CCC2 | 10.8%
46 | CCOc1ccccc1NC(=O)CCC(=O)Nc1nnc(C2CCCCC2)s1 | 24.7%

Row | Compound | hERG current change (%, negative = inhibition) at 1uM
47 | COc1ccc(S(=O)(=O)N(C)C)cc1NC(=O)CSc1nnc(-c2cccnc2)o1 | 6.93%
48 | CCc1c(C)n([O-])c2c([n+]1=O)CCCCC2 | 4.86%
49 | Cc1c(Cl)cccc1Nc1nc(N)nc(CSc2nc3ccccc3s2)n1 | 9.73%
50 | COc1cc(/C=C(\C#N)c2nc3ccccc3n2C)cc(OC)c1O | -0.376%
51 | Cc1ccc(/C=C/c2nc3ccccc3c(=O)n2CCc2ccccc2)cc1 | 10.8%
52 | COC(=O)C1=C(CSc2nnnn2C)NC(=O)NC1c1cc(C)ccc1C (stereo not drawn) | 8.34%
53 | CCC(C)NC(=O)CSc1nnc(-c2ccc(OC)c(OC)c2)c(-c2ccc(OC)c(OC)c2)n1 (stereo not drawn) | 11.7%
54 | CCN(CC)Cc1csc2ccc(Br)cc12.Cl | 4.23%
55 | COCCCNC(=O)CCn1c(=O)c2ccccc2n(CC(=O)Nc2ccc(C)cc2C)c1=O | 15.6%
56 | COc1ccc(N2CCN(CCNC(=O)CCN3C(=O)COc4ccccc43)CC2)cc1 | -15%
57 | Cc1nc(SCc2ccccc2)c2oc3ccccc3c2n1 | 12.8%
58 | CC1(NC(=S)NCCO)CCS(=O)(=O)C1 (stereo not drawn) | 12.8%
59 | CC(Oc1ccc(C(=O)c2ccccc2)cc1)C(=O)Nc1ccc(S(N)(=O)=O)cc1 (stereo not drawn) | 10.4%
60 | Cc1cc(C(=O)NNC(=O)c2cccc(N(C)C)c2)c(C)o1 | 6.29%
61 | O=C(Cn1cnc2ccccc21)OCC(=O)N1CCc2ccccc2C1 | -1.89%
62 | COc1ccc2c(CC(=O)Nc3nc(C)cs3)coc2c1 | 5.62%
63 | COc1ccc(/C=C/C(=O)OCC(=O)Nc2ccc(Cl)c(S(=O)(=O)N(C)C)c2)cc1OC | 12.8%
64 | CCNc1nc(NCC)nc(NC(N)=S)n1 | 16.3%
65 | O=C(COc1ccc(Cl)cc1Cl)OCC(=O)N1CCCc2ccccc21 | 8.61%
66 | COc1ccccc1N1CCN(Cc2ccc(O)c3ncccc23)CC1 | 5.18%
67 | C=C(Cl)COc1ccc2c(CCCC)cc(=O)oc2c1 | 5.38%
68 | Nc1nc(SCC(=O)Nc2cccnc2Cl)n[nH]1 | 3.67%
69 | CC(C)(C)NC(=O)COC(=O)c1cc(Cl)ccc1[N+](=O)[O-] | 13.1%

Row | Compound | hERG current change (%, negative = inhibition) at 1uM
70 | CC(=O)N1N=C(c2cccc(Cl)c2)OC1c1cccc([N+](=O)[O-])c1 (stereo not drawn) | 14%
71 | Cc1ccc(OCCCOc2cccc3cccnc23)cc1C | 6.68%
72 | CCOC(=O)N/N=C1\CCS(=O)(=O)c2ccc(Cl)cc21 | 12.3%
73 | Cc1nn(Cc2ccccc2)c(C)c1NC(=O)CCC(=O)O | 6.42%
74 | Cc1cc(-c2csc(NC(=O)c3ccc(=O)[nH]c3)n2)c(C)n1Cc1ccco1 | 9.16%
75 | O=[N+]([O-])c1ccccc1S(=O)(=O)Nc1ncccn1 | 10.9%
76 | CCOC(=O)C1C(c2cccc(F)c2)NC(=S)NC1(O)C(F)(F)F (stereo not drawn) | 10.1%
77 | COCCCNC(=O)CN(c1ccc(Cl)c(Cl)c1)S(C)(=O)=O | 4.16%
78 | Cn1cc(C(=O)NC2CCCCC2)c(=O)c2cc(S(=O)(=O)N3CCOCC3)ccc21 | 14%
79 | Cn1c(=O)c(C(=O)NCCc2ccc(Cl)cc2)c(O)c2ccccc21 | 15.6%
80 | COc1cccc(/C=N/N2CCN(C)CC2)c1.O=P(O)(O)O | 2.14%
81 | Cc1ccc(F)cc1NC(=O)N1CCNC(=O)C1CC(=O)Nc1cc(Cl)ccc1Cl (stereo not drawn) | 12.1%
82 | Cc1cc(C(=O)Nc2ccc(F)cc2C)n(-c2ccccc2)n1 | 9.93%
83 | Cc1ccc2cc(NC(=O)c3cccc(F)c3)ccc2n1 | 1.58%
84 | COc1ccc(CCNC(=O)CN2C(=O)c3ccccc3C2=O)cc1 | 10.9%
85 | CCOc1ccc(C(C)NC(=O)c2cccc(F)c2)cc1 (stereo not drawn) | 29.7%
86 | COc1ccc(S(=O)(=O)Nc2ccccc2C(=O)Nc2nc(-c3ccc(F)cc3)cs2)cc1OC | -3.98%
87 | CCOC(=O)c1c(NC(=O)COc2ncnc3sccc23)sc2c1CCC2 | 21.6%
88 | COC(=O)c1ccc(N2CCOCC2)c(NC(=O)c2ccc(Br)o2)c1 | 13.8%
89 | Cc1ccc(NC(=O)Cn2c(O)c(N=NC(N)=S)c3ccccc32)cc1 | 13.7%
90 | CC1CN=C(NCc2ccncc2)S1 (stereo not drawn) | 11.1%
